Assay results published in the supplement of paper PMC11876631.
± gives the standard deviation of the averaged measurements. Laboratory Escherichia coli strains with one amino-acid change in an essential protein, pooled on minimal glucose agar with carbenicillin or gentamicin at twice the control MIC (plus kanamycin and chloramphenicol for the plasmids), 48 h. Fold change of barcode share against drug-free plates; higher = less susceptible. Active = above 20 in both replicates (the paper's putatively resistant). '<' = one read or none on drug, '>' = one read or none on a drug-free plate. Shares are relative, so most strains fall below 1 when a few take over. Listed are strains with at least 15 reads on both drug-free plates, and hits; most hits rest on fewer reference reads. Replicate rank correlation about 0.5. Edits are read from barcodes.

B1: pabA; numbered along this chain (parent)
chain: MILLIDNYDSFTWNLYQYFCELGADVLVKRNDALTLADIDALKPQKIVISPGPCTPDEAGISLDVIRHYAGRLPILGVCLGHQAMAQAFGGKVVRAAKVMHGKTSPITHNGEGVFRGLANPLTVTRYHSLVVEPDSLPACFDVTAWSETREIMGIRHRQWDLEGVQFHPESILSEQGHQLLANFLHR
B2: nadB; numbered along this chain (parent)
chain: MNTLPEHSCDVLIIGSGAAGLSLALRLADQHQVIVLSKGPVTEGSTFYAQGGIAAVFDETDSIDSHVEDTLIAGAGICDRHAVEFVASNARSCVQWLIDQGVLFDTHIQPNGEESYHLTREGGHSHRRILHAADATGREVETTLVSKALNHPNIRVLERSNAVDLIVSDKIGLPGTRRVVGAWVWNRNKETVETCHAKAVVLATGGASKVYQYTTNPDISSGDGIAMAWRAGCRVANLEFNQFHPTALYHPQARNFLLTEALRGEGAYLKRPDGTRFMPDFDERGELAPRDIVARAIDHEMKRLGADCMFLDISHKPADFIRQHFPMIYEKLLGLGIDLTQEPVPIVPAAHYTCGGVMVDDHGRTDVEGLYAIGEVSYTGLHGANRMASNSLLECLVYGWSAAEDITRRMPYAHDISTLPPWDESRVENPDERVVIQHNWHELRLFMWDYVGIVRTTKRLERALRRITMLQQEIDEYYAHFRVSNNLLELRNLVQVAELIVRCAMMRKESRGLHFTLDYPELLTHSGPSILSPGNHYINR

Variants of: B1
Test: barcode share on antibiotic plates over drug-free plates; higher = less susceptible
Settings: with Escherichia coli (laboratory strain); antibiotic: carbenicillin; 2× MIC (3.1 µg/mL)
Protocol: (§1)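 A pool of E. coli strains, each edited to carry one amino-acid change in an essential protein, was grown for 48 h on minimal glucose agar with or without antibiotic; strain barcodes were sequenced; mean of two replicates.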

Variant	fold change of barcode share
L4P	0.64 ± 0.025
L4W	0.856 ± 0.23
F141D	1.81 ± 0.024
F141A	1.101 ± 0.0021
F141Q	1.56 ± 0.06
F141W	0.943 ± 0.04
F141P	1.98 ± 0.17
F115Q	0.763 ± 0.051
F115A	0.816 ± 0.15
F115W	0.554 ± 0.097
F115P	0.86 ± 0.33
F115D	1.14 ± 0.43

Same assay, conditions: with Escherichia coli (laboratory strain); antibiotic: gentamicin; 2× MIC (MIC 0.45 µg/mL)

Variant	fold change of barcode share
L4P	< 0.0115
L4W	0.0382 ± 0.015
L4D	< 0.0234
F141D	0.036 ± 0.0055
F141A	0.0358 ± 0.0054
F141Q	0.071 ± 0.069
F141W	0.0211 ± 0.00036
F141P	0.0324 ± 0.0044
F115Q	0.0178 ± 0.0086
F115A	0.0207 ± 0.0078
F115W	0.0061 ± 0.00045
F115P	0.0249 ± 0.0047
F115D	0.0238 ± 0.015

Variants of: B2
Test: as above
Settings: with Escherichia coli (laboratory strain); antibiotic: carbenicillin; 2× MIC (3.1 µg/mL)
Protocol: as §1

Variant	fold change of barcode share
V501A	0.841 ± 0.17
V397P	5.89 ± 0.43
V397A	0.945 ± 0.014
V397Q	9.29 ± 4.1
V397W	5.65 ± 0.24
V397D	3.4 ± 0.8
L396W	1.18 ± 0.27
L396A	0.723 ± 0.12
L396Q	0.83 ± 0.037
L396D	2.56 ± 0.51
I500A	0.615 ± 0.14
I500Q	0.662 ± 0.14
V180D	0.67 ± 0.027
V180P	0.996 ± 0.077
V180A	0.687 ± 0.25
V180Q	0.524 ± 0.036

Same assay, conditions: with Escherichia coli (laboratory strain); antibiotic: gentamicin; 2× MIC (MIC 0.45 µg/mL)

Variant	fold change of barcode share
V501A	0.0242 ± 0.023
V397P	0.316 ± 0.35
V397A	0.764 ± 0.17
V397Q	0.542 ± 0.58
V397W	0.371 ± 0.35
V397D	0.258 ± 0.33
L396Q	0.0298 ± 0.016
L396D	0.184 ± 0.035
I500A	0.0556 ± 0.064
I500Q	0.0497 ± 0.043
V180D	0.0197 ± 0.022
V180P	0.178 ± 0.011
V180A	0.0468 ± 0.052
V180Q	0.0138 ± 0.013
